From article PMC4336329 (PLoS ONE, 2015)
Out of some 310,000 compounds screened, about 2,200 (0.71%) showed an effect of 50% or more. The effect is printed as a negative number. The list shows a part of the results.

biological target: human ether-à-go-go-related gene (hERG) potassium channel (human, UniProt Q12809); experiment: primary screen, population patch clamp on CHO cells stably expressing hERG
Sequence (Q12809 whole entry, looked up): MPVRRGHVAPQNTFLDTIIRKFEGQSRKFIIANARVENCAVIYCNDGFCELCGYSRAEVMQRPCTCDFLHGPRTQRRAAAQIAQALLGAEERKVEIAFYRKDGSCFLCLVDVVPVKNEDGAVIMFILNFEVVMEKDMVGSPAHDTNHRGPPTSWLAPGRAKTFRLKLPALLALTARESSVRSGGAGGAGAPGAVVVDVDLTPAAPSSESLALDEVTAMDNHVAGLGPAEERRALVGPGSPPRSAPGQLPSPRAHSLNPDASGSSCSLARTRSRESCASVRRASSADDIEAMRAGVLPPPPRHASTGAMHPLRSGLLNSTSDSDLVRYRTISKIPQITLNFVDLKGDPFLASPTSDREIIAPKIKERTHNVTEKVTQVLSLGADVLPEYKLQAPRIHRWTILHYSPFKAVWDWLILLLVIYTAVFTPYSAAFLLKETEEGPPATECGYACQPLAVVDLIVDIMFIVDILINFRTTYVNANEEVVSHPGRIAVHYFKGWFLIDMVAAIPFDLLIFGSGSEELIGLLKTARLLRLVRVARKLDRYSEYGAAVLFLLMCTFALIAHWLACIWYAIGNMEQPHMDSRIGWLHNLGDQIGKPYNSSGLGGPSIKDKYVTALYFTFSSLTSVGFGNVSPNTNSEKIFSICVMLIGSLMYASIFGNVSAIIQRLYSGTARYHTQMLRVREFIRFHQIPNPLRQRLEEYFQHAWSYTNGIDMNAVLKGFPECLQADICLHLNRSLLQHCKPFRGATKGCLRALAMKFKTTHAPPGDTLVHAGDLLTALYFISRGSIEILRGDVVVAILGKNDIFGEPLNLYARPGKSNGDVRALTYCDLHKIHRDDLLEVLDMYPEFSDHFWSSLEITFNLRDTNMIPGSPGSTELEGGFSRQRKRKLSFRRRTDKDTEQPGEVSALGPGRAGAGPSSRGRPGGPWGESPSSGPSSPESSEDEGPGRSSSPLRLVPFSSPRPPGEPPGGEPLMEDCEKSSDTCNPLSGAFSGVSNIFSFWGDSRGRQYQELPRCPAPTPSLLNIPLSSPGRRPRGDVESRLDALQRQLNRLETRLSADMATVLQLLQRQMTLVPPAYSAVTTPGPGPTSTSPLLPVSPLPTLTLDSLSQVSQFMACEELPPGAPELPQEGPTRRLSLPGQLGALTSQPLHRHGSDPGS

| Compound | hERG current change (%, negative = inhibition) at 1uM [%] |
| --- | --- |
| CCOC(=O)CN1C(=O)C(=O)N(Cc2ccccc2)C1=O | 14.2 |
| CC(=O)Nc1ccc(S(=O)(=O)CCC#N)cc1 | 4.04 |
| O=C(c1ccccc1Cc1ccccc1)N1CCN(S(=O)(=O)c2ccccc2Br)CC1 | 6.13 |
| COCCCn1c(=O)c2ccccc2n(Cc2ccc(C)cc2)c1=O | 1.64 |
| COc1ccc(OCc2cc(C(=O)NCCN3CCCc4ccccc43)no2)c(Cl)c1 | 11 |
| Cc1ccccc1-c1nc(CN2CCN(C(=O)c3ccco3)CC2)c(C)o1 | 0.875 |
| C=CCN(c1ccccc1)S(=O)(=O)c1cccc(C(=O)Nc2cc(C)ccn2)c1 | -7.28 |
| COc1ccccc1C(=O)Nc1ccc(Br)cc1C | 30.8 |
| Cc1ccc(-c2n[nH]c(=O)c3ccccc23)cc1N | 5.08 |
| CCC(C)[C@H](NC(=O)NCCCN1CCOCC1)C(=O)OC (stereo partly shown) | 6.75 |
| COc1ccc(CCNC(=O)c2cc(-c3ccccc3)c(N3CCOCC3)s2)cc1OC | 13.2 |
| CCOc1ccc2nc(Cl)c(CN(C(C)=O)C3CCCCC3)cc2c1 | 11.5 |
| COc1ccccc1NC(=O)COC(=O)c1ccc2c(c1)nc(C)n2-c1ccccc1 | 5.48 |
| COCC(=O)Nc1ccc(OCc2ccccc2)cc1 | 13.2 |
| COC(=O)NCCc1cc(OC)c(OC)cc1S(=O)(=O)N1CC(=O)Nc2ccccc21 | 3.63 |
| COc1ccc(Cc2nnc(NC(=O)Nc3ccccc3F)s2)cc1 | 15.2 |
| Cn1nnc(NC(=S)NC(=O)c2cccs2)n1 | 3.9 |
| Cn1cccc1Cc1nnc(SCC(=O)Nc2ccc(F)cc2)n1-c1ccc(F)cc1 | 4.03 |
| COc1ccccc1CNC(=O)CN1CCC(n2cnc3cc(F)ccc32)CC1 | -59.1 |
| Cc1cc(OC(C)C(=O)Nc2ccccc2C(=O)N2CCCC2)ccc1Cl (stereo not shown) | -1.78 |
| O=C(/C=C/c1ccccc1)N1c2ccccc2Sc2ccc(C(F)(F)F)cc21 | 13.5 |
| Cc1noc(C)c1CSc1ccccc1C(=O)N(C)CC(=O)Nc1cccc(F)c1 | 10.6 |
| CC1(C)CC(=O)C(C(=O)c2ccccc2)C(=O)C1 | 0.985 |

| Compound | hERG current change (%, negative = inhibition) at 1uM [%] |
| --- | --- |
| CCOc1ccc(C(=O)Nn2cnnc2)cc1 | 6.89 |
| CCCCC(=O)NC(=S)Nc1ccc(NC(=O)C(C)C)c(OC)c1 | 8.9 |
| COc1ccccc1Oc1nc(C)c(C(C)=O)cc1C#N | 13 |
| COc1ccc(C(CC(=O)N2CCOCC2)c2c(OC)cc(OC)c3c(-c4ccccc4)cc(=O)oc23)cc1 (stereo not shown) | 16.3 |
| CC(NC(=O)CN(C)CC(=O)Nc1cccc(F)c1)c1ccccc1 (stereo not shown) | 9.42 |
| CC(SC1=NCCS1)C(=O)Nc1nnc(-c2ccc(Cl)cc2)s1 (stereo not shown) | 10.6 |
| O=[N+]([O-])c1ccc(N2CCC(O)CC2)nc1 | 10.5 |
| CCN(CC(=O)Nc1c(F)cccc1F)C(=O)CCN1C(=O)C2CC=CCC2C1=O (stereo not shown) | 12.6 |
| Fc1ccc(Cn2nnnc2CN2CCN(C3CCCC3)CC2)cc1 | -9.46 |
| Cc1ccc(-n2c(SCCN)nnc2-c2cccc(C)c2)cc1.O=C(O)C(=O)O | -8.4 |
| Cc1ccc(-n2ccnc2SCC(=O)O)c(C)c1 | 14.1 |
| CCc1ccc(NC(=S)N(Cc2ccccc2)Cc2ccccn2)cc1 | 9.77 |
| Cl.O=C(c1ccc(COc2ccccc2Cl)o1)N1CCN(Cc2ccc3c(c2)OCO3)CC1 | 4.64 |
| CCCC(=O)Nc1ccc2c(c1)nc1n2CCSC1 | -2.7 |
| Cl.Oc1ccccc1Nc1nc(NCc2ccccc2)c2ccccc2n1 | 7.76 |
| CN(Cc1ccccc1)c1nnc(N)s1 | 9.56 |
| Cc1nn(C(C)C)c(C)c1CN1CCCC(CCC(=O)NCc2ccccc2F)C1 (stereo not shown) | 15.7 |
| O=C(CC(O)(c1ccccc1)C(F)(F)F)c1cccs1 (stereo not shown) | 8.8 |
| COCCCNc1nc(N)c([N+](=O)[O-])c(N2CCCCCC2)n1 | 17.7 |
| CCCNS(=O)(=O)/C=C/c1ccccc1 | 6.96 |
| Fc1ccc(NC(=S)Nc2ccccc2N2CCOCC2)cc1Cl | 8.59 |
| CC(=O)N1CCc2cc(S(=O)(=O)CCC(=O)N3CCN(c4ccccc4)CC3)ccc21 | 15.1 |
| CC(C)C(=O)Nc1ccc2c(c1)Cc1cc(NC(=O)C(C)C)ccc1-2 | 18.8 |

| Compound | hERG current change (%, negative = inhibition) at 1uM [%] |
| --- | --- |
| COc1ccc(C2C(C(C)=O)=C(C)N=c3s/c(=C\c4ccco4)c(=O)n32)c(OC)c1 (stereo not shown) | -6.75 |
| Cc1ccc(-c2nc3ncccn3c2Nc2ccc3c(c2)OCCO3)cc1 | 18.1 |
| O=C(CS(=O)(=O)c1ccccc1)N1CCCCCC1 | 9.28 |
| COc1ccc(C(=O)NC(=O)N2CCCCC2)cc1 | 11.5 |
| O=c1[nH]c(=O)n(C2CCCO2)cc1Br (stereo not shown) | 11.1 |
| O=C(CCNC(=O)c1ccccc1Cl)Nc1nnc(C2CC2)s1 | 12 |
| COc1ccc(CCNC(=O)CSc2ccc3ccccc3c2)cc1OC | -0.395 |
| Cc1ccc(-c2cc(C(=O)NC3CCN(Cc4ccccc4)CC3)c3ccccc3n2)cc1 | 9.83 |
| COc1cccc(C(=O)Oc2cc3c4c(c2)C(C)=CC(C)(C)N4C(=O)C3=O)c1 | 6.09 |
| Cc1cc2c(cc(C(=O)O)n2C)s1 | 4.27 |
| NCCNc1ccc2nnnn2n1 | 27.8 |
| CCc1cccc2c(-c3csc(=NC)n3C)c[nH]c12 | 2.22 |
| NNC(=O)c1nn(-c2ccc(Cl)cc2)cc1O | -9.09 |
| COc1ccc(C(=O)N/N=C/c2cc3ccccc3[nH]c2=O)cc1 | 13.3 |
| O=C(N/C(=C\c1ccc([N+](=O)[O-])cc1)C(=O)N1CCCCC1)c1ccccc1 | -73.2 |
| COc1ccc(NC(=O)C2CCCN(c3nn4c(=O)cc(C)nc4s3)C2)cc1 (stereo not shown) | 3.79 |
| COc1ccc(-c2nnc(NC(=O)c3ccc(S(=O)(=O)N4CCc5ccccc5C4)cc3)o2)cc1 | 11.6 |
| Cc1noc(NS(=O)(=O)c2ccc(NC(=O)CSc3nc4c(cc3C#N)CCCC4)cc2)c1C | 13.8 |
| COc1ccccc1CNC(=O)C12CC3CC(CC(C3)C1)C2 | 11.4 |
| COc1ccc(C2N(c3ccccc3)CCN2c2ccccc2)cc1O | 9.74 |
| CC1CC(C)CN(S(=O)(=O)c2ccc(Oc3ccc([N+](=O)[O-])cc3)cc2)C1 (stereo not shown) | 14.4 |
| COC(=O)C(=C/C=C/c1ccco1)C(=O)OC | 11.2 |
| Cc1ccc2nc(-c3cccnc3)c(NC3CCCC3)n2c1 | 13.2 |

| Compound | hERG current change (%, negative = inhibition) at 1uM [%] |
| --- | --- |
| Clc1ccc(-n2cnnn2)cc1 | 6 |
| O=C(CCc1nc2ccccc2c(=O)[nH]1)N1CCCc2ccccc21 | 12.8 |
| COc1ccccc1S(=O)(=O)Nc1ccc(-c2nnc3n2CCCCC3)cc1 | -5.71 |
| COC(=O)c1ccsc1NC(=O)c1ccc(Cl)s1 | 15.1 |
| C/C(CCC(=O)OC[C@H]1O[C@H](C#Cc2ccccc2)C=C[C@@H]1Oc1ccc(C)cc1)=N\OC[C@@H](O)[C@H]1O[C@@H]2OC(C)(C)O[C@@H]2[C@H]1O | -15.7 |
| O=C(N/N=C/C=C/c1ccccc1)c1ccncc1 | -1.14 |
| CCCCNC(=S)N1CCN(CC)CC1.O=C(O)C(=O)O | -5.54 |
| Cc1nnc(SCc2nnc(-c3ccccc3Br)o2)s1 | 18.8 |
| CCOc1cc(S(=O)(=O)N2CCOCC2)ccc1F | 7.76 |
| O=C(c1ccc(Cl)c(S(=O)(=O)N2CCOCC2)c1)N1CCN(c2ccccc2)CC1 | -0.271 |
| COc1ccccc1OCC(=O)NNC(=S)NC(=O)c1ccco1 | 5.17 |
| C/C(=N/OC(=O)c1ccc(C)cc1)C(=O)c1ccc(Br)cc1 | 17 |
| Cc1ccc(SCc2nc3ncccn3c2Br)cc1 | -1.32 |
| Cc1ccc(NC(=O)c2ccc(S(=O)(=O)N3CCCC3)cc2)cc1 | 12.1 |
| C/C(CC(=O)Nc1ccc(N(C)C)cc1)=N\NC(=O)c1ccc(Cl)cc1 | -11.5 |
| N#C/C(=C/Nc1ccccc1F)S(=O)(=O)c1ccc(Cl)cc1 | 21.6 |
| CCOC(=O)NC(=O)c1cn(Nc2ccccc2C(F)(F)F)c(=O)[nH]c1=O | -1.55 |
| Cc1ncc(CN2CCCC(C(=O)c3cccc(OC(C)C)c3)C2)s1 (stereo not shown) | 6.97 |
| CC(C)Sc1nnc(-c2ccc(S(=O)(=O)N3CCOCC3)cc2)n1C | 7.81 |
| COc1ccc(OC)c(NC(=O)CS(=O)(=O)c2ccccc2)c1 | 9.89 |
| Oc1ccc(N=Cc2ccc(-c3cccs3)s2)cc1 | 8.48 |
| CCOc1ccc(-c2cc(CCCC(=O)Nc3cc(OC)ccc3OC)no2)cc1 | -1.35 |
